Measurements published in the antibiotic and cytotoxicity screens of Wong et al. (2023).
The list shows a part of the results.

System: HepG2
Test: cytotoxicity call (relative viability < 0.9)
Details: 10 µM

| Structure (SMILES) | cytotoxicity call |
| --- | --- |
| COc1ccc(NC(=O)N(C)C[C@@H]2Oc3c(NS(C)(=O)=O)cccc3C(=O)N([C@H](C)CO)C[C@H]2C)cc1 | inactive |
| Cl.Clc1ccc2nsnc2c1NC1=NCCN1 | inactive |
| Cc1cccc(S(=O)(=O)N2C[C@@H](O)COC[C@H]3O[C@H](CC(=O)NCc4ccc(Cl)c(Cl)c4)CC[C@@H]32)c1 | inactive |
| CC(=O)c1cc2ccccc2s1 | inactive |
| C[C@H]1CN([C@@H](C)CO)C(=O)Cc2cc(NC(=O)Cc3ccccc3)ccc2O[C@@H]1CN(C)S(=O)(=O)c1cn(C)cn1 | inactive |
| COc1ccccc1CNC(=O)C[C@@H]1C[C@@H]2c3cc(NS(=O)(=O)c4ccc(F)cc4)ccc3O[C@@H]2[C@@H](CO)O1 | inactive |
| COC(=O)N/N=C/c1c[n+]([O-])c2ccccc2[n+]1[O-] | inactive |
| CCS(=O)(=O)NCC[C@@H]1CC[C@@H](NS(=O)(=O)c2cccc(F)c2)[C@@H](CO)O1 | inactive |
| COc1ccc(NC(=O)Nc2ccc3c(c2)C(=O)N([C@@H](C)CO)C[C@@H](C)[C@H](CN(C)S(C)(=O)=O)O3)cc1 | inactive |
| O=C([C@H]1[C@H](CO)[C@H]2Cn3c(cccc3=O)[C@@H]1N2CC1CCCC1)N1CCOCC1 | inactive |
| Nc1nc(=O)c2nc(Br)n([C@H]3O[C@H]4CO[PH](O)(O)O[C@@H]4[C@@H]3O)c2[nH]1 | inactive |
| Cl.N=C(N)NCCCC(N)C(=O)O (centres undefined) | inactive |
| CCOC(=O)[C@@H]1[C@H](Cc2ccccc2)[C@H]2c3cc(OC)c(OC)cc3CCN2C(=O)N1c1ccc(OC)cc1 | inactive |
| C[C@@H]1CN([C@H](C)CO)S(=O)(=O)c2ccc(C#CCC3CCCC3)cc2O[C@H]1CN(C)C(=O)c1cnccn1 | inactive |
| C[C@@H]1CCCCO[C@@H](CN(C)Cc2ccc3c(c2)OCO3)[C@@H](C)CN([C@@H](C)CO)C(=O)c2cc(NC(=O)c3ccccc3)ccc2O1 | inactive |
| CC(=O)/C=C/c1ccc(-c2ccc([C@H]3CC(=O)C[C@@H](c4ccccc4)C34C(=O)c3ccccc3C4=O)cc2)cc1 | inactive |
| CC(C)NC(=O)N(C)C[C@H]1Oc2c(NS(=O)(=O)c3cn(C)cn3)cccc2C(=O)N([C@H](C)CO)C[C@H]1C | inactive |
| C[C@H]1CN([C@@H](C)CO)S(=O)(=O)c2ccc(C#CCN(C)C)cc2O[C@@H]1CN(C)C(=O)Nc1ccccc1F | inactive |
| C[C@@H]1CN([C@H](C)CO)C(=O)c2cc(NC(=O)Nc3cccc4ccccc34)ccc2O[C@H]1CN(C)C(=O)Nc1cccc2ccccc12 | inactive |
| COCC(=O)Nc1ccc2c(c1)OC[C@@H](C)N(Cc1cccc(F)c1)C[C@@H](C)[C@@H](OC)CN(C)C2=O | inactive |

| Structure (SMILES) | cytotoxicity call |
| --- | --- |
| COc1cccc(OC[C@@H](O)CN(CCO)CCO)c1 | inactive |
| C[C@@H]1CN([C@H](C)CO)S(=O)(=O)c2ccc(C#Cc3ccncc3)cc2O[C@H]1CN(C)C(=O)Nc1ccc2c(c1)OCO2 | inactive |
| COc1cccc(-c2cnc3c(c2)C(=O)N([C@H](C)CO)C[C@H](C)[C@H](CN(C)S(=O)(=O)c2cccs2)O3)c1 | inactive |
| Cc1noc(C)c1S(=O)(=O)N(C)C[C@@H]1OCCCC[C@H](C)Oc2ccc(NS(=O)(=O)c3cn(C)cn3)cc2C(=O)N([C@@H](C)CO)C[C@H]1C | inactive |
| O=C(Nc1ccn([C@H]2O[C@H](CO)[C@@H](O)[C@@H]2O)c(=O)n1)c1ccccc1 | inactive |
| C[C@@H]1CN([C@H](C)CO)C(=O)Cc2cc(NC(=O)NC3CCCCC3)ccc2O[C@@H]1CN(C)Cc1ccc(C(=O)Nc2ccccc2N)cc1 | active |
| C[C@@H]1CN([C@H](C)CO)C(=O)c2cc(NS(=O)(=O)c3ccccc3)ccc2O[C@@H](C)CCCCO[C@H]1CN(C)Cc1ccc2c(c1)OCO2 | inactive |
| C[C@H](CO)N1C[C@H](C)[C@H](CN(C)Cc2ccc(C(=O)Nc3ccccc3N)cc2)Oc2c(NC(=O)c3nc4ccccc4s3)cccc2C1=O | inactive |
| CC(=O)N1[C@H](Cn2cncn2)C[C@H]2CN(S(C)(=O)=O)CC[C@H]21 | inactive |
| C[C@@H]1CCCCO[C@H](CN(C)Cc2ccc(Cl)c(Cl)c2)[C@@H](C)CN([C@@H](C)CO)C(=O)c2cc(NS(=O)(=O)c3ccc(F)cc3)ccc2O1 | inactive |
| Cc1noc(C)c1S(=O)(=O)Nc1ccc2c(c1)CC(=O)N([C@@H](C)CO)C[C@H](C)[C@@H](CN(C)C(=O)NC1CCCCC1)O2 | inactive |
| C[C@H](CO)N1C[C@H](C)[C@H](CN(C)Cc2ccc(-c3ccccc3)cc2)Oc2ccc(NC(=O)Nc3ccccc3)cc2C1=O | inactive |
| COc1ccc(NC(=O)N(C)C[C@H]2Oc3c(NC(=O)c4cc(C)nn4C)cccc3C(=O)N([C@@H](C)CO)C[C@H]2C)cc1 | inactive |
| C[C@H]1CN([C@@H](C)CO)C(=O)c2cccc(NC(=O)c3ccc(-c4nccs4)cc3)c2O[C@H]1CN(C)CC1CCCCC1 | inactive |
| Cc1noc(C)c1NC(=O)Nc1ccc2c(c1)C(=O)N([C@H](C)CO)C[C@H](C)[C@H](CN(C)S(=O)(=O)c1ccc(F)cc1)OCCCC[C@@H](C)O2 | inactive |
| C[C@@H]1CN([C@H](C)CO)C(=O)c2cc(NC(=O)NC3CCCCC3)ccc2O[C@@H](C)CCCCO[C@@H]1CN(C)S(=O)(=O)c1ccc(Cl)cc1 | inactive |
| Cc1ccc(S(=O)(=O)N(C)C[C@@H]2OCCCC[C@H](C)Oc3ccc(NC(=O)Nc4ccccc4)cc3C(=O)N([C@H](C)CO)C[C@@H]2C)cc1 | inactive |
| O=CC(O)C(O)C(O)CO (centres undefined) | inactive |
| C[C@@H]1CN([C@H](C)CO)C(=O)c2cccc(NC(=O)CCCCCC(=O)Nc3ccccc3N)c2O[C@H]1CN(C)Cc1ccccc1 | inactive |
